The text below walks through data of US20190031785A1 (COMPASS THERAPEUTICS, published 2019).

This test concerns the target T1, PID-130 (trispecific Her2/CD3/PD-1 MIAC; Blinatumomab_CD3 aglycosylated IgG1 with trastuzumab scFv at the …).
T1 construct: also called α-Her2/α-CD3/α-PD-1 MIAC; PID130 [Her2/CD3/PD-1]
Put plainly: BLI (ForteBio Octet); PD-1 Fc on Protein A sensors, 100 nM construct; column 'Affinity (nM)'. As to the method:
Antigen binding of MIAC constructs were analyzed using ForteBio Octet. […] All antigens were reconstituted in PBS at the final concentration of 0.25 ug/ul. […] Association proceeded by dipping sensors in 100 nM MIAC constructs for 5 minutes and disassociation occurred in blank kinetics buffer for 5 minutes. For CD3 epsilon binding, antigen was immobilized on Ni-NTA sensors; association was performed in 50 nM MIAC constructs. Binding data were analyzed using ForteBio Data Analysis 9.0 software.

B1: Recombinant human PD-1 Fc fusion protein (Sino Biological) (Fc fusion)
chain: not shown
notes: not shown: Fc part of a bought fusion protein
For B1, the equilibrium dissociation constant (Kd) turned out to be 0.37 nM.

The Kd is the free concentration of one partner at which half of the binding sites on the other are occupied at equilibrium, for simple one-to-one binding. A low value points to a tighter complex.
